Laboratory results reported in patent publication US20100311683A1, “CYTIDINE ANALOGS FOR TREATMENT OF MYELODYSPLASTIC SYNDROMES” (priority 2007, published 2010).

What was measured:
[1] = test system: patients with higher risk MDS; assay: AZA-001 pooled subgroup analysis by Western EU country; type: in vivo, human
[2] = test system: patients with higher risk MDS; details: for HR (95% CI) for overall survival, AZA vs BSC / HR (95% CI) for overall survival, AZA vs IC / HR (95% CI) for overall survival, AZA vs LDara-C: adjusted stratified Cox model
[3] = IPSS cytogenetic subgroup Intermediate
[4] = ITT, N=179, listed as Azacitidine
[5] = pre-selection BSC only, AZA N=117
[6] = pre-selection IC, AZA N=17 / IC N=25
[7] = pre-selection LDara-C, AZA N=45 / LDara-C N=49

Structure (SMILES): Nc1ncn([C@@H]2O[C@H](CO)[C@@H](O)[C@H]2O)c(=O)n1 [azacitidine, 4-amino-1-β-D-ribofuranosyl-1,3,5-triazin-2(1H)-one]
- HR (95% CI) OS, AZA vs CCR ([1]; France + UK): 0.44 (0.23-0.85)
- difference in median OS, AZA vs CCR ([1]; France + UK): 8.0 months
- OS (median months) ([1]; France + UK (LDAC driven)): 24.5 months
- difference in median OS, AZA vs CCR ([1]; Germany + Italy + Spain): 8.6 months
- OS (median months) ([1]; Germany + Italy + Spain (BSC driven)): 25.1 months
- baseline RBC transfusion-dependent patients who became transfusion independent ([2]; 50 of 111 patients): 45%
- hazard ratio for overall survival, azacitidine vs CCR ([2]; IPSS cytogenetic subgroup Good): 0.62
- overall survival difference favoring azacitidine vs CCR ([2]; IPSS cytogenetic subgroup Good): median not reached
- hazard ratio for overall survival, azacitidine vs CCR [2, 3]: 0.43
- overall survival difference favoring azacitidine vs CCR [2, 3]: 9.3 months
- hazard ratio for overall survival, azacitidine vs CCR ([2]; IPSS cytogenetic subgroup Poor): 0.52
- overall survival difference favoring azacitidine vs CCR ([2]; IPSS cytogenetic subgroup Poor): 11.2 months
- Any hematologic improvement (Major + Minor) rate ([2]; ITT): 49.2%
- HI-E Major (erythroid improvement) rate ([2]; ITT): 39.5%
- HI-N Major (neutrophil improvement) rate ([2]; ITT): 25/131 (19.1) %
- HI-P Major (platelet improvement) rate ([2]; ITT): 32.6%
- difference in median overall survival, azacitidine vs CCR ([2]; ITT): 9.4 months
- hazard ratio for overall survival, azacitidine vs CCR (Cox model) ([2]; ITT): 0.58
- hazard ratio, time to AML transformation, azacitidine vs CCR ([2]; ITT): 0.50
- median duration of hematologic improvement ([2]; ITT): 13.6 months
- median time to AML transformation ([2]; ITT): 17.8 months
- median time to disease progression, relapse after complete or partial remission, or death ([2]; ITT): 14.1 months
- overall survival advantage vs CCR ([2]; ITT): 74%
- patients alive at two years ([2]; ITT): 50.8%
- reduction in risk of death vs CCR ([2]; ITT): 42%
- difference in time to transformation to AML, azacitidine vs CCR ([2]; ITT population, FIG. 6): 13.7 months
- Complete Remission rate ([2]; ITT, N=179): 17%
- Deaths during first 3 cycles of treatment ([2]; ITT, N=179): 8%
- Deaths, overall ([2]; ITT, N=179): 82 (46) %
- Overall (CR + PR) rate, IWG 2000 ([2]; ITT, N=179): 28.5%
- Partial Remission rate ([2]; ITT, N=179): 21/179 (11.7) %
- Stable Disease rate ([2]; ITT, N=179): 75/179 (41.9) %
- Deaths during first 3 cycles of treatment ([2]; ITT, N=179, listed as AZA): 14 (8) %
- Complete Remission rate [2, 4]: 30/179 (16.8) %
- Overall (CR + PR) rate, IWG 2000 [2, 4]: 51 (28.5) %
- median Kaplan-Meier overall survival ([2]; ITT, azacitidine 75 mg/m2/day SC 7 d every 28 d, n=179): 24.4 months
- Any hematologic improvement (Major + Minor) rate ([2]; ITT, listed as Azacitidine): 87/177 (49.2) %
- HI-E Major (erythroid improvement) rate ([2]; ITT, listed as Azacitidine): 62/157 (39.5) %
- HI-P Major (platelet improvement) rate ([2]; ITT, listed as Azacitidine): 46/141 (32.6) %
- median time to AML transformation ([2]; assessed during treatment): 26.1 months
- median time to transformation to AML or death ([2]; assessed over the entire trial): 13.0 months
- HR, dependence of overall survival prolongation on achievement of complete remission ([2]; azacitidine vs CCR): 0.39
- deaths reported during treatment and follow-up ([2]; by treatment group): 45%
- hazard ratio, time to transformation to AML or death, azacitidine vs CCR ([2]; entire trial): 0.68
- discontinuation / early withdrawal due to blood cytopenias ([2]; human, in vivo): 4.6%
- discontinuations prior to study closure due to adverse events ([2]; human, in vivo): 12.6%
- hazard ratio, infections requiring intravenous antimicrobials, azacitidine vs intensive chemotherapy ([2]; human, in vivo, iv): 0.28
- rate of infections requiring intravenous antimicrobials ([2]; human, in vivo, iv): 0.64 per patient year
- tolerability ([2]; in vivo): well tolerated
- hazard ratio, infections requiring intravenous antimicrobials, azacitidine vs BSC ([2]; in vivo, iv): 1.1
- hazard ratio, infections requiring intravenous antimicrobials, azacitidine vs CCR ([2]; in vivo, iv): 0.66
- hazard ratio, infections requiring intravenous antimicrobials, azacitidine vs LDara-C ([2]; in vivo, iv): 0.44
- HI-E Major rate ([2]; pre-selection BSC only): (39.0) %
- HI-N Major rate ([2]; pre-selection BSC only): (15.3) %
- HI-P Major rate ([2]; pre-selection BSC only): (30.3) %
- IWG Any hematologic improvement rate ([2]; pre-selection BSC only): (49.6) %
- difference in median overall survival, AZA vs BSC ([2]; pre-selection BSC only): 9.6 months
- Complete Remission (CR) rate [2, 5]: (12.0) %
- Kaplan-Meier median overall survival [2, 5]: 21.1 months
- Overall (CR + PR) rate [2, 5]: (27.4) %
- Partial Remission (PR) rate [2, 5]: (15.4) %
- Stable Disease (SD) rate [2, 5]: (44.4) %
- Deaths during first 3 cycles of treatment ([2]; pre-selection BSC only, ITT): (12) %
- Deaths, overall ([2]; pre-selection BSC only, ITT, AZA N=117): (45) %
- HR (95% CI) for overall survival, AZA vs BSC ([2]; pre-selection BSC only): 0.58
- HR (95% CI) for overall survival, AZA vs BSC ([2]; pre-selection BSC only, listed as AZA): 0.58 (0.40 to 0.85), 0.005
- HI-E Major rate ([2]; pre-selection IC): (28.6) %
- HI-N Major rate ([2]; pre-selection IC): (23.1) %
- HI-P Major rate ([2]; pre-selection IC): (33.3) %
- IWG Any hematologic improvement rate ([2]; pre-selection IC): (35.3) %
- difference in median overall survival, AZA vs IC ([2]; pre-selection IC): 9.4 months
- Complete Remission (CR) rate [2, 6]: (29.4) %
- Kaplan-Meier median overall survival [2, 6]: 25.1 months
- Overall (CR + PR) rate [2, 6]: (29.4) %
- Partial Remission (PR) rate [2, 6]: (0.0) %
- Stable Disease (SD) rate [2, 6]: (47.1) %
- HR (95% CI) for overall survival, AZA vs IC ([2]; pre-selection IC): 0.76
- HR (95% CI) for overall survival, AZA vs IC ([2]; pre-selection IC, listed as AZA): 0.76 (95% CI: 0.33 to 1.74)
- Deaths during first 3 cycles of treatment ([2]; pre-selection Intensive Chemo, ITT): (0) %
- Deaths, overall ([2]; pre-selection Intensive Chemo, ITT, AZA N=17 / IC N=25): (53) %
- HI-E Major rate ([2]; pre-selection LDara-C): (44.2) %
- HI-N Major rate ([2]; pre-selection LDara-C): (27.3) %
- HI-P Major rate ([2]; pre-selection LDara-C): (37.8) %
- IWG Any hematologic improvement rate ([2]; pre-selection LDara-C): (53.3) %
- difference in median overall survival, AZA vs LDara-C ([2]; pre-selection LDara-C): 9.2 months
- Complete Remission (CR) rate [2, 7]: (24.4) %
- Kaplan-Meier median overall survival [2, 7]: 24.5 months
- Overall (CR + PR) rate [2, 7]: (31.1) %
- Partial Remission (PR) rate [2, 7]: (6.7) %
- Stable Disease (SD) rate [2, 7]: (33.3) %
- Deaths during first 3 cycles of treatment ([2]; pre-selection LDara-C, ITT): (0) %
- Deaths, overall ([2]; pre-selection LDara-C, ITT, AZA N=45 / LDara-C N=49): (44) %
- HR (95% CI) for overall survival, AZA vs LDara-C ([2]; pre-selection LDara-C): 0.36
- HR (95% CI) for overall survival, AZA vs LDara-C ([2]; pre-selection LDara-C, listed as AZA): 0.36 (0.20 to 0.65), 0.0006

Read-outs that look alike come from different tables or passages of the source.
